Values of other authors in article PMC3930637.

Biological target: HIV-1 capsid (CA) CA (Human immunodeficiency virus 1) (UniProt O93182)
Experiment: ITC

UniProt O93182, sequence (O93182 133-363): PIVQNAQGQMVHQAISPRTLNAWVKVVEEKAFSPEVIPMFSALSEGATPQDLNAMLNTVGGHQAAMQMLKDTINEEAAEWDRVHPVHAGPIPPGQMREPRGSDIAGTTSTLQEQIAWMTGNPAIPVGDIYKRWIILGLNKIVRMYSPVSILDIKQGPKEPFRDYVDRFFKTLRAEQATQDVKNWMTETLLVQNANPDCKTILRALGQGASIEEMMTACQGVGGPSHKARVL

In the case of “Nup358 cyclophilin homology domain (from UniProt P49792)”, the Kd is given as 16 µM and > 200 µM.

For part of its entries the source gives two or more results. The other results are left out here. The source may hold further records. The records of an entry read as repeated measurements on other runs, samples or individuals.
